Out of some 48,000 compounds screened, about 1,200 (2.5%) were called active. About 2% were inconclusive and are not listed.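 The calls were made as follows: active = activation of at least 60% and not above a set upper limit (about 1 call in 100 departs from these limits); inconclusive = activation of 40% to 60%, or above that upper limit; inactive = activation under 40%.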 Some of the results follow.
Each compound was assayed against Probable G-protein coupled receptor 32 (Homo sapiens) (UniProt O75388) (assay: qHTS for Agonists of Human Resolvin D1 Receptor DRV1). Details: CHO-K1 GPR32 beta-arrestin PathHunter luminescence, 90 min; at 76.9 µM; stronger effect = higher value; zero percent set by DMSO-only wells.
Outline: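 Cells are plated overnight, treated with compounds in DMSO for 90 minutes at 37 °C, and developed with PathHunter detection reagent for 1 hour before luminescence is read; signal reflects beta-arrestin binding to GPR32 in engineered CHO-K1 cells.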
Also: 0% is about no effect.

Sequence of UniProt O75388 (O75388 whole entry, looked up): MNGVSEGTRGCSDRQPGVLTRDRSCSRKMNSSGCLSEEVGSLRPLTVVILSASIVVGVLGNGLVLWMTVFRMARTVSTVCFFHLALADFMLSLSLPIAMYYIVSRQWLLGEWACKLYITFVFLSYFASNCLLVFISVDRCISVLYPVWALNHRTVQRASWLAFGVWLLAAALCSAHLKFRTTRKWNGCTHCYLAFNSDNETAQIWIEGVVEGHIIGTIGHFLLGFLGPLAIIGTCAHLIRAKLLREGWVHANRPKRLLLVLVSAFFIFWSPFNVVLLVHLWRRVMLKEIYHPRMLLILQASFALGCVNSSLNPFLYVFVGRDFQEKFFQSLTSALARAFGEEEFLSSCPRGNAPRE

activation, active:
Cc1ccc(C(=O)c2oc3ccccc3c2NC(=O)c2nc(S(C)(=O)=O)ncc2Cl)cc1F 74.6%
CCOC(=O)CSc1nc2ccc(NC(=O)COc3ccccc3)cc2s1 61.1%

activation, inactive:
CCN(CC)c1ccc2cc(-c3nnc(-c4cccc(Cl)c4)o3)c(=O)oc2c1 18.9%
Cc1csc2nc(-c3cccc(NC(=O)c4cccc(F)c4)c3)cn12 -2.22%
O=C(CS(=O)Cc1ccco1)NC/C=C\COc1cc(CN2CCCCC2)ccn1 (centres undefined) -16.6%
Cc1cccc(-c2noc(CN(C(=O)c3ccc(C)c(C)c3)C(C)C)n2)c1 14.6%
Cc1ccc(NC(=O)c2ncn(-c3ccccc3)n2)c(Cl)c1 -5.82%
COc1ccc(C)cc1N(C)C(=O)c1sc2nc3n(c(=O)c2c1C)CCCCC3 -5.36%
CCOc1ccc(CCNC(=O)C2=C(C)C(=O)OC23CCC(C)CC3)cc1OCC (centres undefined) -22.6%
CCCCCn1c(=O)[nH]c2cc(C(=O)NCc3ccc(C)cc3)ccc2c1=O -0.0575%
COc1cccc(NC(=O)CSc2nc(-c3ccccc3)nc3c2Cc2cc(Cl)ccc2O3)c1 -14.2%
Nc1ncnc2c1c(-c1ccc(Oc3ccccc3)cc1)cn2C1CCCC1 -6.18%
O=S(=O)(c1ccccc1)c1nc(-c2ccc(F)cc2)oc1N1CCOCC1 -37.2%
CCOc1cc(C#N)c(NC(=O)c2ccc(OC)c(S(=O)(=O)N3CCCC3)c2)cc1OCC -7.2%
CCOC(=O)c1cccc(NC(=O)CC(c2ccc(F)cc2)N2Cc3ccccc3C2=O)c1 (centres undefined) -4.23%
COc1ccccc1NC(=O)N(Cc1ccco1)C1CCN(C(C)=O)CC1 -25.3%
CCCOc1ccc(OC(=O)c2sc3ncn(Cc4cccc(F)c4)c(=O)c3c2C)cc1 -1.45%
C=CC1(C)CC(=O)C2(O)C(C)(O1)C(OC(C)=O)C(O)C1C(C)(C)CCC(O)C12C (centres undefined) 45.7%
O=C(c1nc(-c2ccc(Cl)cc2)n2c1CCCCC2)N1CCN(c2ccc(F)cc2)CC1 2.95%
CCOC(=O)c1c(NC(=O)c2cc(-c3ccccc3)on2)sc2c1CCCC2 -0.671%
CC(C)Cn1c(=O)c2sccc2n2c(CCCC(=O)Nc3ccc(Cl)cc3)nnc12 -12.7%
CS(=O)(=O)c1ncc(N(Cc2ccccc2)Cc2ccco2)c(C(=O)Nc2cccc(C(F)(F)F)c2)n1 -16.3%
Cc1cc(C)c(NC(=O)CSc2nc(=O)n(Cc3ccco3)c3c2CCC3)c(C)c1 -2.57%
O=C(NCCc1ccc(Cl)cc1)c1ccc2nc(Cc3ccccc3)oc2c1 -10.8%
Cc1cc2c(cc1S(=O)(=O)Nc1cccc(C(F)(F)F)c1)OCCN2C -15.5%
CCOc1ccc(-c2nonc2NC(=O)c2ccccc2C)cc1 29.1%
COc1ccc2c(Sc3ccccc3)c(C(=O)NCCN(C)C)[nH]c2c1 -16.6%
CCc1ccc(CN(Cc2ccco2)C(=O)c2cc(-c3ccc(Cl)cc3)on2)cc1 0.479%
CC(C)(C)C1CCc2c(sc(NC(=O)c3ccccc3F)c2C(=O)N2CCCCC2)C1 (centres undefined) -35.6%
CCN(CC)C(=O)c1sc2c(c1C)c(=O)n(-c1ccc(C)c(C)c1)c(=O)n2CC(=O)Nc1ccc(F)cc1 -12.4%
O=C(Cc1ccc(Cl)cc1)Nc1ccc2oc(-c3ccccc3)nc2c1 12.9%
CC(C)Oc1ccc(CNC(=O)Cc2ccc(NC(=O)N3CCSc4ncccc43)cc2)cc1 5.7%
Cc1ccc2c(c1)c(=O)c(S(=O)(=O)c1ccc(F)cc1)cn2CC(=O)Nc1ccc2c(c1)OCO2 -9.56%
Cc1ccc(Cl)cc1NC(=O)NC1COc2ccccc2C1 (centres undefined) 4.39%
CCC(Cn1nnc2ccccc2c1=O)NC(=O)Nc1cc(Cl)ccc1OC (centres undefined) -22.9%
Cc1cccc(C2N3CC4(C(C)C)CN2CC(C(C)C)(C3)C4=O)c1 (centres undefined) 23%
Cc1ccc(-n2ncc(C(=O)NCc3cccs3)c2C2CCN(C(=O)OC(C)(C)C)CC2)cc1C -28.9%
CN1CCC[C@@H]1c1cccnc1 -0.0583%
CC(C)CN(CCNC(=O)c1cc(=O)[nH]c2ccc(S(=O)(=O)N3CCCCCC3)cc12)CC(C)C -26%
Cn1c(=O)oc2cc(S(=O)(=O)NCCC(=O)Nc3ccc(F)c(Cl)c3)ccc21 3.19%
Cc1ccc(C)c(OCCOCCn2c(-c3ccc(Br)cc3)nc3ccccc3c2=O)c1C 9.11%
Cc1cccc(Cn2c(CNS(=O)(=O)c3ccc(Cl)s3)nc3cccnc32)c1 -36.2%
Cc1ccc2[nH]c(CSc3nnc(NC(=O)COc4ccccc4F)s3)cc(=O)c2c1 34.9%
CCOc1ccc(-c2cc3c(=O)n(CC(=O)Nc4c(C)cccc4C)ccn3n2)cc1 -3.83%
Fc1ccc(-c2csc(-c3nc(-c4ccc(Br)s4)cs3)n2)cc1 1.25%
Cc1ccc(Cl)cc1NC(=O)/C(C#N)=C/c1c(C)n(Cc2ccccc2)c2ccccc12 -2.71%
CC1CCCCN1C(=O)CSc1nnc(-c2cccc(Cl)c2)o1 (centres undefined) 11.8%
CCOc1ccc(NC(=O)CCCN2C(=O)C(c3ccccc3)Oc3cccnc32)cc1 (centres undefined) -7.34%
COc1cccc(NC(=O)C(=O)NCC(c2cccnc2)N2CCN(c3ccccc3)CC2)c1 (centres undefined) 19.7%
Cc1ccccc1-n1nc(CO)c(C(=O)NCCc2ccccc2)n1 -11.7%
CC1CCc2c(sc(NC(=O)c3ccccc3)c2C(=O)Nc2ccccc2)C1 (centres undefined) 31%
Cc1cccc(CSc2cn(CC(=O)N3CCCCCC3)c3ccccc23)c1 -12.8%
COc1ccc(OC)c(CNc2ncnc3onc(-c4ccc(Cl)cc4)c23)c1 0.605%
CCCCN(C)CCNC(=O)C1CCN(c2nc3ccc(CC)cc3s2)CC1 -14.1%

From PubChem BioAssay AID1346428 (National Center for Advancing Translational Sciences (NCATS), 2018)
